# Reference: PubChem BioAssay AID2147 (National Center for Advancing Translational Sciences (NCATS), 2009)
# Among all 230,000 compounds or so, about 3,600 (1.6%) were called active. This list was built around the results that the source calls inconclusive (neither active nor inactive); the mix of calls is not that of the screen. Calls follow the shape of the dose curve; as a rule, active = well fitted inhibition curve with a large enough effect (not every such curve was filed as active); inconclusive = small, poorly fitted or top-dose-only effect, or another doubt; inactive = no such curve, though single readings can be large or run the other way. Potencies of inconclusive entries are doubtful fits and often do not repeat.
# Target: Lysine-specific demethylase 4E (Homo sapiens) (UniProt B2RXH2)
# UniProt B2RXH2, sequence (B2RXH2 whole entry, looked up, the tested form may be a part): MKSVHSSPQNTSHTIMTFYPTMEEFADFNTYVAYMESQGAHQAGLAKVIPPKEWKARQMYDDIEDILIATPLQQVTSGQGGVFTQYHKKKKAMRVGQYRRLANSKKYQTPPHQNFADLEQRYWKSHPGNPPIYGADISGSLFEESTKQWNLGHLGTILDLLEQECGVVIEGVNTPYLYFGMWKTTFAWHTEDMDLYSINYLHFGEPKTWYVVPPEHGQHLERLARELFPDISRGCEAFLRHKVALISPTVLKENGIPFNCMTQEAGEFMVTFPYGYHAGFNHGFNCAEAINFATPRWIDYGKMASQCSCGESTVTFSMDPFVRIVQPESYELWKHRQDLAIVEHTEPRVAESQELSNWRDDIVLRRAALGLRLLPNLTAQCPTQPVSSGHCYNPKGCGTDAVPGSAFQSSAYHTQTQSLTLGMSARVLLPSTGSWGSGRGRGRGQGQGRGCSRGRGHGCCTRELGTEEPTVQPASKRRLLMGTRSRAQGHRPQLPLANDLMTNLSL
# Assay: qHTS Assay for Inhibitors of Human Jumonji Domain Containing 2E (JMJD2E)
# Conditions: JMJD2E catalytic domain, FDH-coupled NADH fluorescence (FDH is formaldehyde dehydrogenase); series mostly up to 57.1 µM; activity change, negative = inhibition: at the top concentration
# Also: nearly all actives have a fitted effect of over 50% in size.
# 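For activity change, negative = inhibition in this document: 0% = wells with enzyme and -100% = buffer wells without enzyme.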
# Potency is read from the fitted curve at half-maximal effect; tags tell the direction and shape of the fitted curve.
SMILES,Potency,"activity change, negative = inhibition"
CCCCN(CC)CCNc1c(NC2CCN(C(=O)OCC)CC2)c(=O)c1=O,"inconclusive: 35.5 µM [inhibitor, partial curve]",–
COc1ccc([N+](=O)[O-])cc1NC(=S)NC(NC(=O)Cc1ccc(OC)c(OC)c1)C(Cl)(Cl)Cl (centres undefined),"inconclusive: 39.8 µM [inhibitor, single point]",–
Cn1nc(-c2ccc(Cl)cc2)c2cc(C(=O)NCCN3CCOCC3)sc21,"inconclusive: 28.2 µM [inhibitor, partial curve]",–
CCOc1cccc(NC(=O)CSc2nc(C)c3c(c2C#N)CCCC3)c1,"inconclusive: 7.08 µM [inhibitor, single point]",–
Cc1cc2cc(C=C(C#N)C#N)c(Cl)nc2cc1C,"inconclusive: 22.4 µM [inhibitor, partial curve]",–
O=C(NNc1ccccc1C(F)(F)F)c1sccc1Br,"inconclusive: 14.1 µM [inhibitor, partial curve]",–
Cc1ccc(S(=O)(=O)Nc2cc(=O)[nH]c(SCc3ccc(Cl)cc3)n2)cc1,"inconclusive: 14.1 µM [inhibitor, partial curve]",–
COC(=O)c1ccc(C2c3c(oc4cc(C)c(C)cc4c3=O)C(=O)N2CCCN(C)C)cc1 (centres undefined),"inconclusive: 39.8 µM [inhibitor, single point]",–
O=C(O)CCCNC(=O)/C=C/c1ccco1,"inconclusive: 28.2 µM [inhibitor, single point]",–
CCOC(=O)c1c(C)[nH]sc1=S,"inconclusive: 39.8 µM [inhibitor, single point]",–
COc1ccc(C(=O)NC(=S)Nc2ccc([N+](=O)[O-])cc2C)cc1OC,–,inactive: -7.6%
Cc1ccc2c(c1)CCCN2C(=O)Nc1ccc2c(c1)OCO2,"inconclusive: 25.1 µM [inhibitor, single point]",–
CN1c2ccccc2C(C)(C)C12CC(c1ccc(Cl)c(S(=O)(=O)N3CCCC3)c1)=NO2 (centres undefined),–,inactive: 10.6%
Cc1cccc(NC(=O)/C=C/c2ccc3c(c2)OCO3)n1,"inconclusive: 31.6 µM [inhibitor, partial curve]",–
CCOC(=O)c1c(NC(=O)Cn2nnc(-c3ccc(Cl)cc3)n2)sc(C)c1C,–,inactive: -4.89%
COc1ccccc1OCCCCCCN1CCOCC1,"inconclusive: 39.8 µM [inhibitor, single point]",–
CCn1cc(/C=C/C(=O)c2ccc(O)cc2)c(C)n1,"inconclusive: 25.1 µM [inhibitor, single point]",–
Cc1cnc(C(=O)OCC(=O)Nc2oc(-c3ccccc3)c(-c3ccccc3)c2C#N)cn1,–,inactive: 9.09%
COc1ccccc1C(=O)Nc1cc2c(ccc3ccccc32)oc1=O,"inconclusive: 15.8 µM [inhibitor, partial curve, poor fit]",–
O=C1CN(C(=O)CNCc2ccccc2)c2ccccc2N1,"inconclusive: 17.8 µM [inhibitor, single point]",–
CC1=CN2C(=N)/C(=C/c3ccc([N+](=O)[O-])o3)C(=O)N=C2S1,active: 28.2 µM,–
CCN(CCC(=O)Nc1cc(OC)cc(OC)c1)Cc1ccccc1,"inconclusive: 28.2 µM [inhibitor, single point]",–
O=C(COc1ccc(Br)cc1F)N1CCN(c2ncccn2)CC1,"inconclusive: 35.5 µM [inhibitor, single point]",–

SMILES,Potency,"activity change, negative = inhibition"
N#Cc1c(N)n(CCNC(=O)c2ccc(Cl)cc2)c2nc3ccccc3nc12,"inconclusive: 3.55 µM [inhibitor, full curve]",–
CN(C)/C=C1\Oc2ccc3ccccc3c2C1=O,"inconclusive: 31.6 µM [inhibitor, single point]",–
CCN(CC)c1ccc(/C=N/NC(=O)Cc2ccc(OC)c(OC)c2)cc1,"inconclusive: 22.4 µM [inhibitor, partial curve]",–
CCS(=O)(=O)Nc1ccc2c(c1)N(C(C)=O)c1ccccc1CC2,"inconclusive: 31.6 µM [inhibitor, single point]",–
Cc1ccc2sc(-c3ccc(NC(=O)CCN4C(=O)c5ccccc5C4=O)cc3)nc2c1,"inconclusive: 28.2 µM [inhibitor, partial curve]",–
Fc1ccc(-c2nnc3sc(C4COc5ccccc5O4)nn23)cc1 (centres undefined),–,inactive: -5.39%
CCOC(=O)c1ccc(N2CSC3=C(C#N)C(c4cccs4)CC(=O)N3C2)cc1 (centres undefined),"inconclusive: 25.1 µM [inhibitor, single point]",–
Cc1ccc(C(c2nnnn2C2CCCCC2)N2CCN3CCCC3C2)cc1 (centres undefined),"inconclusive: 8.91 µM [inhibitor, single point]",–
Oc1ccc(CN2CCCc3ccccc32)c2cccnc12,active: 8.91 µM,–
O=C(/C=C/Sc1ccccc1)c1ccccc1,–,inactive: -6.64%
CN(C)Cc1ccccc1-c1cncnc1NCc1ccccc1,"inconclusive: 28.2 µM [inhibitor, single point]",–
Clc1ccc(-c2cn3nc4c(nc3n2)CCCC4)cc1,"inconclusive: 28.2 µM [inhibitor, partial curve]",–
COc1ccc(-c2csc(NC(=O)c3nc(-c4ccccc4)oc3C)n2)cc1,"inconclusive: 28.2 µM [inhibitor, single point]",–
COc1cc2c(cc1OC)CN(Cc1ccc(OC)c(C)c1OC)CC2,"inconclusive: 22.4 µM [inhibitor, single point]",–
Cc1nc(SCC(=O)c2cc3ccccc3oc2=O)c(C#N)c(-c2ccccc2)c1C(=O)Nc1ccccc1,"inconclusive: 11.2 µM [inhibitor, partial curve]",–
CN(C)C(=O)c1ccc(-c2nc(N(C)C)c3ccccc3n2)cc1,"inconclusive: 25.1 µM [inhibitor, partial curve]",–
COC(=O)c1cc2c(ccn2-c2ccc(F)cc2)n1Cc1cccc(OC)c1,"inconclusive: 35.5 µM [inhibitor, partial curve]",–
COc1ccc(-c2c3c(=O)n(C)c(=O)n(C)c3cn2Cc2ccccn2)cc1,"inconclusive: 35.5 µM [inhibitor, single point]",–
NC(N)=NCCC[C@H](NC(=O)CC1(CC(=O)N2CCN(C3c4ccccc4NC(=O)c4ccccc43)CC2)CCCC1)C(=O)NCCn1c(=O)n(-c2ccccc2)n(-c2ccccc2)c1=O (some centres undefined),–,inactive: 1.55%
CCOC(=O)N1CCN(c2c(NCc3cccs3)c(=O)c2=O)CC1,–,inactive: -2.95%
CCCCc1n[nH]c(=S)n1Cc1ccc(Cl)cc1,–,inactive: -16.6%
COc1ccc(C(=O)Nc2ccccc2C(=O)NC(Cc2ccc(O)cc2)C(=O)NNC(=O)c2ccccc2Cl)cc1 (centres undefined),"inconclusive: 39.8 µM [inhibitor, single point]",–
Cc1cccn2c(=O)c(/C=N/O)c(N3CCCCC3)nc12,–,inactive: -28.4%

SMILES,Potency,"activity change, negative = inhibition"
Cc1ccc(C)c(Nc2ccc(C(=O)NCCc3ccccc3)cn2)c1,"inconclusive: 39.8 µM [inhibitor, single point]",–
CCOC(=O)c1ccc(NC(=O)CC2SCCNC2=O)cc1 (centres undefined),–,inactive: 0.75%
CCOC(=O)Cc1csc(NC(=O)C(C)Oc2ccc3c(C)cc(=O)oc3c2)n1 (centres undefined),"inconclusive: 31.6 µM [inhibitor, partial curve]",–
CCOc1ccc(NC(=S)N(CCc2c(C)[nH]c3ccc(C)cc23)Cc2ccco2)cc1,–,inactive: -6.05%
COc1ccc2[nH]c(C(=O)Nc3ccc(C)c(F)c3)cc2c1,"inconclusive: 28.2 µM [inhibitor, partial curve]",–
COc1ccc2c(c1)[nH]c1c(=O)n(/N=C/c3ccc(OC)c(CN4CCCCC4)c3)cnc12,–,inactive: 7.13%
COC(=O)c1ccc(/C=C(\C#N)C(=O)NC(C)c2ccccc2)cc1 (centres undefined),–,inactive: 1.11%
CCCCN(C)Cc1c(C)[nH]c2ccc(OCC)cc2c1=O,"inconclusive: 35.5 µM [inhibitor, single point]",–
Cc1cccc(CCNC(=O)CC2C(=O)NCCN2CC2CCCCC2)n1 (centres undefined),"inconclusive: 39.8 µM [inhibitor, single point]",–
CCOC(=O)c1c(NC(=O)OC)sc(C(=O)N(CC)CC)c1C,–,inactive: 0.539%
CNC(=O)COC(=O)/C=C/c1nc2ccccc2s1,"inconclusive: 25.1 µM [inhibitor, single point]",–
Cc1cccc(NS(=O)(=O)c2cccs2)n1,"inconclusive: 31.6 µM [inhibitor, partial curve]",–
Cc1[nH]n(-c2nc(-c3ccccc3)cc(=O)[nH]2)c(=O)c1CCO,"inconclusive: 35.5 µM [inhibitor, single point]",–
O=S(=O)(c1ccc(NCC2CCCCC2)nc1)N1CCOCC1,"inconclusive: 35.5 µM [inhibitor, single point]",–
Cc1cc(C)nc(SCCC(=O)Nc2ccccc2Cl)n1,"inconclusive: 3.55 µM [inhibitor, single point]",–
CCOC(=O)C1=C(C)N=c2s/c(=C\c3cc(OC)c(OC)c(OC)c3)c(=O)n2C1/C=C/c1ccccc1 (centres undefined),–,inactive: 14.5%
CC1CC1c1ccc(/C=C(\C#N)C(=O)Nc2ccc(Cl)cc2)o1 (centres undefined),–,inactive: 0.745%
COc1ccc(N2C(=O)CSC23C(=O)Nc2ccccc23)cc1OC (centres undefined),"inconclusive: 28.2 µM [inhibitor, single point]",–
Cn1c(=O)cc(SCC(=O)NCc2cccnc2)c2ccccc21,"inconclusive: 25.1 µM [inhibitor, single point]",–
CC(=O)N1CC(c2ccccc2)C(c2ccc(Cl)cc2)=N1 (centres undefined),"inconclusive: 31.6 µM [inhibitor, single point]",–
CN(C)c1ccc(-c2nc(N(C)C)c3ccccc3n2)cc1,"inconclusive: 28.2 µM [inhibitor, partial curve]",–
COc1ccc(CCSc2nnc(C3CCCCC3)n2N)cc1,–,inactive: -26.7%
COc1cccc2cc(C(=O)Nc3ccc(S(=O)(=O)NCC4CCCO4)cc3)c(=O)oc12 (centres undefined),"inconclusive: 10 µM [inhibitor, partial curve]",–
